Assay results: ChEMBL document CHEMBL4888484, “Replenishing the malaria drug discovery pipeline: Screening and hit evaluation of the MMV Hit Generation Library 1 (HGL1) against asexual blood stage Plasmodium falciparum ,using a nano luciferase reporter read-out” (2022)
Where “and” joins values, the source holds several entries; their conditions need not be identical. Identical values can stand only once. In all, about 150,000 compounds went through this assay and about 540 (0.36%) showed an effect of 50% or more. Some of the results follow.

Test system: Plasmodium falciparum
Assay: Primary screen in NF54 nanoGlo assay, in single point, at 2uM, 72h; a lower Z score goes with more inhibition
Format: functional, Erythrocyte
Conditions: timepoint 72 hour

Row | SMILES | % Inhibition [%] | Z score | % Inhibition (2 µM)
1 | Cc1ccoc1C(=O)N(C)c1nc2ccccc2o1 | 0 | -0.06 | 
2 | COc1ccc(-c2c(-c3cccc(OC)c3)[nH]c3[nH]c(=O)[nH]c(=O)c23)cc1 | -5 | 0.84 | 
3 | CCc1ccc(C(=O)N[C@@H](CC(C)C)c2cccnc2)[nH]1 | 13 | -1.71 | 
4 | CCC1C2C(=O)N(c3ccc(Br)cc3)C(=O)C2C(C(N)=O)N1C (centres undefined) | -41 | 4.85 | 
5 | O=C(NCCc1ccccc1OC(F)F)N1CCOC[C@H]1C1CC1 | 4 | -0.49 | 
6 | CC(C)c1cc(C(=O)N2CCCCC(C)(C)C2)no1 | -3 | 0.35 | 
7 | Cn1nccc1-c1ccc(CNC(=O)[C@H]2CCOC2)cn1 | -1 | 0.08 | 
8 | Cc1cc(CCNC(=O)N2CC3CC4CC3C2C4O)cc(C)c1O (centres undefined) | -6 | 0.93 | 
9 | CN(CCC(=O)O)c1ccnc(C2CC2)n1 | -50 | 5.86 | 
10 | CC1(C2CCN(C(=O)c3cn(Cc4ccccc4)nc3-c3ccccc3)CC2)OCCO1 | -12 | 1.61 | 
11 | CCC(=O)N1CCN([C@H]2CCN(Cc3ccccc3)C2)CC1 | 2 | -0.31 | 
12 | Cc1cc(C)c(CNC(=O)[C@H]2CC(=O)N(c3ccc(C)c(F)c3)C2)c(=O)[nH]1 | -12 | 1.78 | 
13 | COCCO[C@H]1CCN(c2nnc(-c3ccc(C)o3)n2Cc2ccccc2)C1 | -12 | 1.54 | 
14 | COc1cccc(CN2CCC(C)(C)S(=O)(=O)CC2)c1F | -10 | 1.54 | 
15 | COC1(C)CC(NC(C(N)=O)c2ccccc2)C1(C)C (centres undefined) | 8 | -0.85 | 
16 | NCCCc1ccc(Cl)c(Cl)c1 | -3 | 0.38 | 
17 | CN(Cc1csnn1)[C@@H](C(N)=O)c1cccc(Br)c1 | -10 | 1.87 | 
18 | CCN(CCN1CCCC1)C(=O)c1c(C)n[nH]c1C1CC1 | 1 | -0.07 | 
19 | CN(CCCC(=O)NC[C@H]1c2ccccc2C(=O)N1C)C(=O)c1ccncc1 | -14 | 1.53 | 
20 | COc1nc2c(c(C)nn2-c2cccc(F)c2)c(C)c1CCC(=O)N1CCCC1 | -11 | 1.56 | 
21 | Cc1nc(N[C@@H](C)Cn2cccn2)cc(C(C)C)n1 | 7 | -1.31 | 
22 | Cn1cc(-c2noc(/C=C/c3cccc(Cl)c3)n2)ccc1=O | -1 | 0.14 | 

Row | SMILES | % Inhibition [%] | Z score | % Inhibition (2 µM)
23 | CN(C)c1ncncc1NC(=O)c1ccc(F)c(F)c1 | -8 | 0.82 | 
24 | Cc1c[nH]c(-c2c(-c3ccccc3)ncn2[C@H](CO)c2ccccc2)n1 | -9 | 1.21 | 
25 | O=C(c1ccc(F)cc1Cl)N1CC[C@H](c2cccs2)C1 | 2 | -0.47 | 
26 | Cc1nn(C)c2nc(-c3cccs3)cc(C(=O)N3CCCC[C@@H]3C)c12 | 1 | -0.19 | 
27 | CCCCC1CCCC1NC(=O)CCc1c(C)noc1C (centres undefined) | 5 | -0.59 | 
28 | CCCn1nnnc1CN(C)S(=O)(=O)CCC | -11 | 1.72 | 
29 | Cc1ccc2c(c1)CCCN2C(=O)c1ccoc1 | 4 | -0.72 | 
30 | Cc1csc(CN(C)c2ncccc2C(=O)N2CCCCC2)n1 | -9 | 0.73 | 
31 | Cc1ccccc1NC(=O)Cn1ccnc1-c1cccc(Cl)c1 | -10 | 1.31 | 
32 | Cc1c(N)ncn(Cc2ccc(Cl)cc2)c1=O | 5 | -0.58 | 
33 | Cc1[nH]c(=O)c(C(=O)N(Cc2cnn(C)c2)C(C)C)c(C)c1Cl | -5 | 0.52 | 
34 | CCn1nc(Cn2cncn2)nc1CN1CCOC1=O | -7 | 1.42 | 
35 | CC1(C)Cc2cccc(NC(=O)N3CCC(O)(C4CCC4)CC3)c2O1 | -4 | 0.53 | 
36 | O=C(Cn1ccc2ccccc21)N1CCN(c2cnsn2)CC1 | -11 | 1.41 | 
37 | CCc1nc(C)c(C(=O)NC(C)(C)C(=O)OC)s1 | 1 | -0.15 | 
38 | CC1CCC(C)(NC(=O)c2cc(S(N)(=O)=O)cn2C)CC1 (centres undefined) | -15 | 2.43 | 
39 | C[C@@H](C(=O)NC1(C#N)CCCCC1)N1CCN(c2nccs2)CC1 | -9 | 1.54 | 
40 | CC[C@@]1(C(=O)Nc2cccc(COC(C)C)c2)CCCN1 | -10 | 1.09 | 
41 | COc1cccc(CN2C[C@]34C=C[C@H](O3)C(C(=O)N3CCC(F)CC3)C4C2=O)c1 (some centres undefined) | -6 | 1.19 | 
42 | CO[C@@H](CN(C)Cc1cn2c(n1)CCCC2)c1ccccc1 | -12 | 2.1 | 
43 | Cn1cc([C@@H](OC(=O)c2scnc2C2CC2)C(F)(F)F)cn1 | -3 | 0.58 | 
44 | Brc1ccc(CN[C@H](c2nccs2)C2CC2)o1 | 7 | -0.65 | 

Row | SMILES | % Inhibition [%] | Z score | % Inhibition (2 µM)
45 | Cc1cccc2ncnc(N3CCC([C@@H]4CCCN4)CC3)c12 | 5 | -0.9 | 
46 | CN(C)c1ccc(CN[C@H]2C[C@H]3C(=O)NC[C@@H](CCC(=O)Nc4ccccc4)N3C2)cc1 | -10 | 1.33 | 
47 | Cc1[nH]c2ccc(NC(=O)c3ccccc3F)cc2c1[C@@H](c1ccccn1)N1CCCCC1 | 3 | -0.5 | 
48 | Cc1ncn(CCNC(=O)[C@]2(c3ccccc3F)CC2(C)C)c1C | -11 | 1.79 | 
49 | CC(C)(C)c1ccc(OC[C@H]2CCCN2)nn1 | -3 | 0.35 | 
50 | COc1ccc(CCNC(=O)c2cc3n(n2)[C@H](C(F)(F)F)C[C@H](c2ccco2)N3)cc1 | -12 | 1.6 | 
51 | Cc1cc(C)cc(-n2nc(C)cc2NC(=O)C(=O)Nc2ccccc2)c1 | 0 | 0.04 | 
52 | COc1ccc(NC(=O)c2cc(C#N)c3ccccn23)cc1 | 3 | -0.3 | 
53 | COc1ccc(CN2Cc3cc(NC(=O)CC(C)(C)C)ccc3O[C@@H](C)C2=O)cc1 | -2 | 0.2 | 
54 | Cc1cc(CN=C(N)Nc2ccc3c(c2)CCC3)no1 | -4 | 0.56 | 
55 | O=C1N[C@@](Cc2ccc(F)cc2)(C2CCN(Cc3c[nH]c4ccccc34)CC2)C(=O)N1C1CCCC1 | 7 | -1.39 | 
56 | CC(=O)c1ccc(C(=O)N2CCC[C@@H]2CCC2CCCCC2)[nH]1 | -7 | 0.74 | 
57 | CCS(=O)(=O)N1CCN(C2CCCC2)CC1 |  |  | 0% and 2%
58 | CCN(CC)CCC[C@H](C)NC(=O)CCN(CCOC)C(=O)c1cnc(C)cn1 | 1 | -0.11 | 
59 | O=C(c1cc(Br)cn2ncnc12)N1CC(n2ccnn2)C1 | -10 | 1.31 | 
60 | CCC(C(=O)N1CC2C3CCC(O3)C2C1)c1ccccc1 (centres undefined) | -3 | 0.46 | 
61 | FC(F)Cn1cc(CN2CCOCc3ccccc32)cn1 | -5 | 0.66 | 
62 | O=C(CN1CCN(S(=O)(=O)c2cccc(Br)c2)CC1)NC1CCCCCC1 | -6 | 0.72 | 
63 | O=C1N[C@]2(CCc3ccccc3C2)C(=O)N1CN1CCN(c2ccccc2F)CC1 | -4 | 0.49 | 
64 | COCc1nc(CN2CCCC2)n(Cc2ccc(F)cc2)n1 | -3 | 0.31 | 
65 | c1ccc2cc(-c3nnc([C@H]4CC45CCOCC5)o3)ccc2c1 | -11 | 2.09 | 
66 | CC[C@H](Nc1nnnn1-c1ccccc1)C(=O)Nc1cnn(CC)c1 | 5 | -0.86 | 

Row | SMILES | % Inhibition [%] | Z score | % Inhibition (2 µM)
67 | c1c[nH]c([C@H]2CCCN(c3ncnc4c3CCC4)C2)n1 | -3 | 0.42 | 
68 | CCC1OCCCC1C(=O)N[C@H]1C[C@@H](O)C1 (some centres undefined) | -19 | 2.69 | 
69 | NS(=O)(=O)C1CCN(C(=O)NC[C@H]2C[C@@H]2c2ccccc2)C1 (some centres undefined) | -8 | 1 | 
70 | COc1ccc(N2CCN(C(=O)c3cc4occc4c(Nc4ccc(C)c(Cl)c4)n3)CC2)cc1 | -12 | 1.22 | 
71 | c1nc([C@H]2CCCNC2)cc(N(Cc2ccc3c(c2)OCO3)C2CC2)n1 | 7 | -0.89 | 
72 | CCN1C(=O)Cc2cc(NS(=O)(=O)Cc3ccccc3Cl)ccc21 | -10 | 1.43 | 
73 | C[C@H](NC(=O)c1ccc(OC(F)F)cn1)[C@H]1COC(C)(C)O1 | -1 | 0.18 | 
74 | Cc1ccccc1C[C@@]1(C2CCN(C(=O)C3(C)CCCCC3)CC2)NC(=O)N(CCCN(C)C)C1=O | -1 | 0.09 | 
75 | O=C(NC1CCCCCC1)[C@@H]1CC=CCC1 | -9 | 1.7 | 
76 | COCC(=O)N(CC(=O)Nc1ccc(N2CCN(C(=O)NC(C)(C)C)CC2)cc1)Cc1ccc(F)cc1 | -14 | 1.61 | 
77 | CC1(C)C[C@@H](O)CCN(c2ncc(F)c(NCC(F)F)n2)C1 | -15 | 1.89 | 
78 | Cc1ccccc1NC(=O)CN1CC(=O)N(CC(=O)Nc2ccccc2C)CC1=O | 12 | -1.61 | 
79 | CC1CN(C(=O)CN2C(=O)COc3ccc(Cl)cc32)CC(C)O1 (centres undefined) | -5 | 0.43 | 
80 | CC(C)Cc1ccc(CN2CCN(c3ccc4[nH]ncc4c3)C(=O)C2)cc1 | -1 | 0.07 | 
81 | CCn1cc(Cn2cc(C[C@H](O)C(C)(C)C)nn2)nn1 | -3 | 0.55 | 
82 | Cn1ccnc1CN1CCN2C(=O)N(c3ccccc3)C(=O)[C@@H]2C1 | 8 | -1.36 | 
83 | CCc1ccccc1NC(=O)CN1CCN(C(=O)c2ccc(O)nc2)CC1 | 7 | -0.59 | 
84 | Cc1ccsc1C(=O)N[C@@H](CNC(=O)OC(C)(C)C)C1CC1 | 9 | -0.87 | 
85 | Cn1cccc1CN1CCCCCNC(=O)[C@@H]2CCC[C@@H]21 | -8 | 1.09 | 
